± gives the standard deviation of the averaged measurements. Whole data set: some 4,100 sequences, median “arbitrary fluorescence units” near 780, cut for the highest 2% near 22,000. The list shows a part of the results.
Biological target: T1, ETS1 (UniProt P14921)
T1 sequence: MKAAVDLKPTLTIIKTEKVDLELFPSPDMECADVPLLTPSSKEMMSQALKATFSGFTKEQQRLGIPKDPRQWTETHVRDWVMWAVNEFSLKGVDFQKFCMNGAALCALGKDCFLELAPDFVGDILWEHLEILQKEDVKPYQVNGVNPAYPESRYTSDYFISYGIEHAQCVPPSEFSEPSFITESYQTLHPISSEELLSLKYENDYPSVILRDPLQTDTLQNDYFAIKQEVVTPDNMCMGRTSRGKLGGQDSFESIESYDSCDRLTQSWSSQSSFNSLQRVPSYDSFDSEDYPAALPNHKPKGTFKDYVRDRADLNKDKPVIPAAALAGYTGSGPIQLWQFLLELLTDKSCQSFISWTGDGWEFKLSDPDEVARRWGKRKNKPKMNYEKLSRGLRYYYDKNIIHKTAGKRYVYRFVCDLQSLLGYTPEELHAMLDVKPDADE
Experiment: ETS1 binding intensity (PBM fluorescence), ETS1 alone (arbitrary fluorescence units); higher = stronger binding
Details: ETS1 concentration 1 nM; RUNX1 concentration 0 nM
In short: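 Recombinant full-length human ETS1 was applied at 1 nM, without RUNX1, to double-stranded Agilent 4 × 180k arrays of 36-bp genomic probes carrying a mutated RUNX1 partner site, following standard PBM protocols. Detection used an anti-ETS1 antibody (Cell Signaling Technology 14069) and an Alexa488-conjugated secondary antibody, with scanning on a GenePix 4400A. Each sequence was printed as four replicate spots. Binding level is the spot fluorescence intensity, summarised across replicates and not normalised.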

With CTGCGGAAGCAGCCAAGGCGGGCCCTCCCGTAGGCC as the sequence, how does the ETS1 binding intensity read?
The ETS1 binding intensity was 1100.

For CCTCCGCTGGGGTGTCTGTAACTACTTCCTCAGGAG, which ETS1 binding intensity is on record?
Its ETS1 binding intensity is 490.

With ACACAGGAAGCAAAAGTTAAGCTATAAAACCCTCAA as the sequence, how does the ETS1 binding intensity read?
The ETS1 binding intensity was 1720.

Which ETS1 binding intensity does the source give for CTCCTGGGCTCGTTGTCAAAACATCCTGTAGCAAGG here?
Its ETS1 binding intensity is 1130.

Which ETS1 binding intensity does the source give for GCGGGGCGTGTCCACGCACTTCCGGTTTTCTCGAAA here?
Its ETS1 binding intensity is 28700.

For CGGAGCCCAACGACCGGCACTTCCGGGGGGCGGGTG, which ETS1 binding intensity is on record?
Its ETS1 binding intensity is 5010.

How did the ETS1 binding intensity turn out when TCTCTCTACGGAAGCTGGTAGGGCTGTAGGTGCTTC was run?
Its ETS1 binding intensity is 562.

For GTTCACGTTCCGCTCTTAGTGCGCGTTGAGTTCCCC, which ETS1 binding intensity is on record?
Its ETS1 binding intensity is 429.

How did the ETS1 binding intensity turn out when AGAGGCAGCTTCCGGAGACTGCTCTCTGGCCAGTTT was run?
The ETS1 binding intensity was 9500.

Which ETS1 binding intensity does the source give for CCACCCACTTCCTGCCCTAGCTAGTGTGATATTTTT here?
Its ETS1 binding intensity is 19300.

For ATCGGCGGTCCCCCAGGTCCCGGATGTAGCGGACAG, which ETS1 binding intensity is on record?
Its ETS1 binding intensity is 1480.

With GCGCCGCTCACAGCCGATCGACATTTCCCAGAATCA as the sequence, how does the ETS1 binding intensity read?
The ETS1 binding intensity was 313.

How did the ETS1 binding intensity turn out when GCGCGGCCCGGAAGGGGGTAAACGCTGAGTCTTTGA was run?
Its ETS1 binding intensity is 1160.

Which ETS1 binding intensity does the source give for TCAGAACCCCAGACGTGGCCCTGCGTGGCTTCCGGC here?
The ETS1 binding intensity was 757.

With AAGGCGGAGGAAGGGAAAATTGGGGTTGGGCAGAGG as the sequence, how does the ETS1 binding intensity read?
The ETS1 binding intensity was 418.

Which ETS1 binding intensity does the source give for CAGGATCTGCTGCAGGCCCGCCTTCCGTCCCCGGCC here?
The ETS1 binding intensity was 508.

How did the ETS1 binding intensity turn out when ATAGCTTGGGGTTTATGGGTCAGGAAGTTGAGGGTG was run?
The ETS1 binding intensity was 598.

With TCTCTTTGCCGCGAGGAAAGCTGGGAAATGTAGTGC as the sequence, how does the ETS1 binding intensity read?
Its ETS1 binding intensity is 463.

ACCCTACTTCCGTTGCTGTGTCGCGGAGGTGACCTA was tested. Which ETS1 binding intensity did it give?
The ETS1 binding intensity was 17100.

Which ETS1 binding intensity does the source give for AGTGACGTTTGGGGCAGTAAGGCTTCCGTCGGAAAA here?
Its ETS1 binding intensity is 601.

For TCAACGCCACCCCAAAGAGACGTCCGGGAGAAGCCT, which ETS1 binding intensity is on record?
The ETS1 binding intensity was 433.

How did the ETS1 binding intensity turn out when GCACAGCGATCACAGAGGTGACGCGGAAGGAGACTG was run?
The ETS1 binding intensity was 381.

CCCTTCGCTTCCGCTCCGCGTTCCAACAATGCAGTG was tested. Which ETS1 binding intensity did it give?
The ETS1 binding intensity was 9720.

With TTGTCACGTCCGGCACGCCGCGAACGTCAAGGAACC as the sequence, how does the ETS1 binding intensity read?
The ETS1 binding intensity was 5430.

With TGGAGGAGACAACACCTTCAAGCAACATCCTCTCCT as the sequence, how does the ETS1 binding intensity read?
Its ETS1 binding intensity is 559.

For AATTGAGACAGGAAATGTTGGTTTGGGGTCAGGCAC, which ETS1 binding intensity is on record?
The ETS1 binding intensity was 5970.

How did the ETS1 binding intensity turn out when ACCTCACCCTCATAGTGTTAAGAAAGCGTTTCCTGC was run?
The ETS1 binding intensity was 755.

With CCTTTACTTCCTTTTACTTCTAATCACAGAATTAAA as the sequence, how does the ETS1 binding intensity read?
The ETS1 binding intensity was 8540.

With TGGCAGCAAAGCACGGAGGCTTCTCGGATGTGCAGA as the sequence, how does the ETS1 binding intensity read?
The ETS1 binding intensity was 326.

Which ETS1 binding intensity does the source give for GAAATGAAGGCCGGATGTCAGTAACCCCAAACGAGC here?
The ETS1 binding intensity was 9810.

For TGTTGGAAACTACAGGGCCCGGTGGATATCCGTCAC, which ETS1 binding intensity is on record?
The ETS1 binding intensity was 403.

Which ETS1 binding intensity does the source give for CGGTGCAGTGAGCTCGACACTCACTTCCCTGTGCAG here?
The ETS1 binding intensity was 345.

Which ETS1 binding intensity does the source give for CTCGGCCTACGGCGGGGTAGAGCGCCGGAAACGGCT here?
Its ETS1 binding intensity is 761.

With GACCCGGCTACACCTCAAGAAAAGGAAGTTCCCGTA as the sequence, how does the ETS1 binding intensity read?
The ETS1 binding intensity was 564.

With GCTTCTTCCGGCCGGGCCGAGAGGTGCTTACATTCG as the sequence, how does the ETS1 binding intensity read?
The ETS1 binding intensity was 17900.

For GACAGAACCTGTGCTCTGCAGGGTTTCCTGTTAAAC, which ETS1 binding intensity is on record?
The ETS1 binding intensity was 941.

How did the ETS1 binding intensity turn out when GCTGTATTCGGTGGCTTAGGATGTAGGTTTCTTTGT was run?
Its ETS1 binding intensity is 512.

For TCCTCCGTTTCCGTAGTTCCGAGTTGCGATTTCTCC, which ETS1 binding intensity is on record?
The ETS1 binding intensity was 3890.

Which ETS1 binding intensity does the source give for GGAGGCGGAAGTGGAGGTTGTTGGGGCTCCGAGGGC here?
Its ETS1 binding intensity is 4230.

Which ETS1 binding intensity does the source give for GCAAAAACAACGGTCTTGAAGGAAGCCTGCCTGATA here?
Its ETS1 binding intensity is 382.

With CCCATTTCCGAGAGTGGCAGGGCTGGGCGCGGAGGG as the sequence, how does the ETS1 binding intensity read?
The ETS1 binding intensity was 2750.

CATTGAATGGGGTAGGAGGTGGGGAGGAAGCCACTG was tested. Which ETS1 binding intensity did it give?
Its ETS1 binding intensity is 594.

For CTGCCCACCGGAAACGATGGCGCGAGGCCGCTGAGC, which ETS1 binding intensity is on record?
The ETS1 binding intensity was 18600.

CCTGTGACCCAGAGCACCAACAGGAATCTTTGGGGT was tested. Which ETS1 binding intensity did it give?
The ETS1 binding intensity was 366.

With TTCCAAACCCCAACCTGCAGCCGGAATGGGGGAGTG as the sequence, how does the ETS1 binding intensity read?
The ETS1 binding intensity was 434.

Which ETS1 binding intensity does the source give for GGAGGCAGGGCCTCAACCCCGGGAAGCTGGGGTCGG here?
The ETS1 binding intensity was 307.

For CGGGCCCGACGGAAACCATGTTTATGGCTCGCAGCA, which ETS1 binding intensity is on record?
Its ETS1 binding intensity is 846.

With GGGGCGGCTTCCGGCGGCGTGACCTGACCCCAAGAG as the sequence, how does the ETS1 binding intensity read?
The ETS1 binding intensity was 14100.

For AACCTCACCAGCCACGGACAGGCAGGAAGAGGGCTG, which ETS1 binding intensity is on record?
The ETS1 binding intensity was 589.

For CTCCCACCATCCACTGCAGCCACTTCCGCCCGTCCT, which ETS1 binding intensity is on record?
The ETS1 binding intensity was 3490.

For AACTCCTGGCCGGAACGGCACAGACTGCACTCCCGC, which ETS1 binding intensity is on record?
The ETS1 binding intensity was 341.

With TGTGCATGTGATTTTCGGGTACGTGATTTCCTCTTT as the sequence, how does the ETS1 binding intensity read?
Its ETS1 binding intensity is 521.

AGGGTTACAATTTCCGTAAACCAGAGAAGCAGCAGA was tested. Which ETS1 binding intensity did it give?
The ETS1 binding intensity was 2910.

GCCCTGTGATTTTCTGAGGCCCCCGAGGAGGAAGTG was tested. Which ETS1 binding intensity did it give?
Its ETS1 binding intensity is 386.

How did the ETS1 binding intensity turn out when AGAGCAACAGGATGCAAATAACTACAAGCAAGAATA was run?
The ETS1 binding intensity was 1540.

How did the ETS1 binding intensity turn out when ACAGTTTAAGCACTCTAAACCCCAACTTCCTCATCT was run?
Its ETS1 binding intensity is 620.

GGTGTAGGTGCTGCTCCAGGCTATCGGATGCTCACC was tested. Which ETS1 binding intensity did it give?
Its ETS1 binding intensity is 492.

CGAGCAGGAAGAAAGCCAGGCTCCGGGGCTGGGGGC was tested. Which ETS1 binding intensity did it give?
Its ETS1 binding intensity is 474.

How did the ETS1 binding intensity turn out when TAGGGGCTGAGGGTCCGGGCGGAAGTGGGGCAGGCG was run?
Its ETS1 binding intensity is 2500.

GGGCCCCTCAGCCCGACCGCCTGACCGGAAGTGCAG was tested. Which ETS1 binding intensity did it give?
Its ETS1 binding intensity is 5030.

For TGTGCTACCGAAGAGGCCAATCTTCAACAGGAAGTC, which ETS1 binding intensity is on record?
The ETS1 binding intensity was 793.

CGCCCTCCGGAAGAGAGGGCGGACAGCGCCCGCGCC was tested. Which ETS1 binding intensity did it give?
The ETS1 binding intensity was 1310 ± 34.

For GAACTTCCGGGACCACGTGACGTAGAACTACAACAA, which ETS1 binding intensity is on record?
Its ETS1 binding intensity is 32800.

Reference: the supplement of paper PMC10681739
